This is one part of the list. At the low end of the ranking, values are background and their order means little.

In this test the target is SIX1-Q177R homeodomain (UniProt Q15475). Kind of test: universal protein binding microarray. The settings on record: Universal all-10-mer PBM (8x60K, AMADID 030236), 300 nM GST-tagged protein, Alexa Fluor 488 anti-GST; buffer, salt, pH and temperature not stated; high values mean tight binding; most listed sequences are background and not binding sites; double strand, one strand shown.
Take AATACTGG: the binding signal came to 0.0782 E-score.
In the case of CAATATTA it was -0.0679 E-score; in that of CACAGAGA, 0.011 E-score.
In the case of CCAGCAGA it was -0.101 E-score.
In the case of TAAGTGTA it was 0.373 E-score.
ACTCAATC: the binding signal was found to be 0.0646 E-score.
Then ATGTTTGA, with -0.32 E-score; and AGCAATAA, with -0.32 E-score; and CCTGGCGC, with -0.13 E-score.
Then GATCTCCC, with 0.0071 E-score.
Then ACCGTGAT, with 0.0595 E-score; and GATAGGCC, with -0.137 E-score.
In the case of AACGAGTC, the binding signal is -0.0912 E-score.
Then ATCATCGC, with -0.208 E-score; and ATCACTAC, with -0.0323 E-score; and CGAGACGA, with -0.0076 E-score.
In the case of AAGCGAGT it was 0.124 E-score.
Then AGGCGCAA, with -0.189 E-score.
As for GGTAAACC, the binding signal was -0.0198 E-score.
For CTGCAACA, the binding signal is 0.0909 E-score.
AGCAGAAA: the binding signal is -0.158 E-score.
In the case of AGTGCGAA, the binding signal was -0.0812 E-score.
In the case of CAGTACAC it was 0.433 E-score; in that of GTAAGGGA, 0.0919 E-score.
As to ACGGTGTC, the binding signal amounted to 0.488 E-score.
In the case of ACGAACCG it was -0.0227 E-score; in that of AACAACCG, -0.179 E-score; in that of CCGGTGGC, 0.0915 E-score.
Consider GAATAACA, for which the binding signal came to 0.151 E-score.
Regarding CGGCTCAG, the binding signal was -0.0611 E-score.
Then GGCCTTCA, with -0.097 E-score; and ACTGAGAA, with -0.11 E-score.
Take AAAGGGGT: the binding signal stood at 0.162 E-score.
For TATTTTAA, the binding signal was -0.104 E-score.
On to AAGCAACT, for which the binding signal is -0.206 E-score.
In the case of CTTCATAA it was -0.222 E-score; in that of ACAATCGA, -0.247 E-score.
CCTGTTTA: the binding signal is -0.107 E-score.
Consider ATACGACA, for which the binding signal is 0.18 E-score.
In the case of ACCAAAGC it was -0.0868 E-score.
Then ATCGGCTA, with -0.0549 E-score; and GATCTCGA, with -0.119 E-score.
In the case of CGGTATGC it was -0.149 E-score; in that of GGATATAC, 0.0751 E-score; in that of ACAGCTGC, -0.279 E-score.
With AACAGTAT, the binding signal was -0.283 E-score.
In the case of GTATCAGA, the binding signal was found to be 0.284 E-score.
Then GATACCAA, with 0.263 E-score; and ACCACTAT, with -0.028 E-score; and ATTGGAAG, with -0.139 E-score.
In the case of AGATCCCT it was 0.0983 E-score.
With CGCGGTAG, the binding signal was -0.087 E-score.
In the case of AATTACGG it was -0.331 E-score; in that of AGTGTGTA, 0.285 E-score; in that of CGTATAAC, -0.109 E-score.
Consider ATGGAGGA, for which the binding signal is -0.0217 E-score.
In the case of CGGGAGAG it was 0.151 E-score.
For CCTAACAC, the binding signal is 0.404 E-score.
With AGTACAAC, the binding signal was -0.0102 E-score.
Then CAGGCGGG, with 0.107 E-score; and GAATCTCC, with -0.0498 E-score; and CCAGTACC, with 0.184 E-score.
Then CTTCCTCC, with -0.224 E-score; and AGTGTTCG, with 0.369 E-score; and TTAGGGAA, with -0.125 E-score.
In the case of ACGTGAGG it was 0.053 E-score; in that of GGCACTCA, -0.0534 E-score.
As to AAGGGAGT, the binding signal stood at 0.181 E-score.
With CTTATGTC, the binding signal was -0.0544 E-score.
Then GCCGCGCC, with -0.136 E-score; and ACCATTAA, with -0.0164 E-score.
In the case of CCGTAAAA it was -0.127 E-score; in that of AGCTCGCG, -0.224 E-score.
In the case of ACGCGTGC it was 0.0289 E-score; in that of AATCGATC, -0.184 E-score.
Consider GCACTGGC, for which the binding signal worked out at 0.12 E-score.
With AAAGCAAT, the binding signal is 0.15 E-score.
As for ATGAGACC, the binding signal was determined as 0.134 E-score.
Then AGAACGGA, with 0.142 E-score; and GTGGTCAA, with -0.272 E-score.
In the case of AGTCTAGG it was -0.138 E-score; in that of CATTGCTA, -0.268 E-score.
In the case of AAACTTGG it was -0.0654 E-score; in that of AGAGACGA, 0.0597 E-score.
Take TTGCAAAA: the binding signal was -0.291 E-score.
Then GCGTCAGC, with 0.0683 E-score.
Then AATACAGC, with -0.249 E-score; and CTGAACAG, with -0.208 E-score; and CGAGGTAG, with -0.0624 E-score.
Take CAGGACTG: the binding signal is -0.192 E-score.
In the case of TCGGAAGA it was 0.0788 E-score; in that of TCAAAAGA, -0.125 E-score.
On to CTTGCGAC, for which the binding signal is -0.0621 E-score.
As to GTATATAC, the binding signal is 0.143 E-score.
Then GACGTCGA, with -0.191 E-score; and CTATTCTA, with -0.0797 E-score.
For GGAACAAC, the binding signal is -0.111 E-score.
As to ACCGCGCC, the binding signal amounted to 0.0362 E-score.
In the case of ACTCAAAT, the binding signal is -0.224 E-score.
Consider ACAGCTAG, for which the binding signal came out at 0.0937 E-score.
With ATCACGCG, the binding signal is -0.165 E-score.
On to AAACGGTG, for which the binding signal was 0.308 E-score.
Then AACGCTTC, with -0.207 E-score.
In the case of GAATGATA it was -0.118 E-score.
In the case of GATAGGTA it was 0.0405 E-score.
Take CCTATGTC: the binding signal is -0.186 E-score.
For the sequence AGACGACC, the binding signal worked out at 0.0419 E-score.
Turning to ATGAGATA, the binding signal worked out at 0.0584 E-score.
Turning to AACGCATG, the binding signal is -0.243 E-score.
Then ACGAAGTC, with -0.11 E-score; and ATAAGGCG, with -0.00877 E-score; and TACTACGA, with -0.0106 E-score.
For TACGCGGA, the binding signal was 0.0998 E-score.
In the case of CCCTGGTC it was -0.0681 E-score; in that of AAGAGCTG, 0.0167 E-score; in that of GCATAACC, 0.0771 E-score.
Take AGAGACAG: the binding signal was -0.162 E-score.
Then CATTGAGA, with -0.232 E-score; and AGATTGTA, with -0.166 E-score.
Then GGAGCAGA, with -0.253 E-score; and CTTAATCC, with -0.0606 E-score.
Then TTATGAAA, with -0.0335 E-score.
Regarding ACTGCACC, the binding signal worked out at 0.141 E-score.
With AGCGCCAT, the binding signal was -0.128 E-score.
Regarding AGATCGTC, the binding signal was -0.0529 E-score.
Turning to ATTTTGGC, the binding signal is -0.192 E-score.
In the case of AGCTAATC it was -0.333 E-score; in that of CCCGCTCG, 0.0873 E-score; in that of ATACCTGG, 0.0896 E-score.
Turning to CCCCGTAG, the binding signal was found to be 0.11 E-score.
In the case of GCACAATA it was -0.0336 E-score.
In the case of CCGCGGGC it was -0.0196 E-score.
Then CAGCGACA, with 0.105 E-score; and CACACAGG, with 0.182 E-score; and GGGATGAC, with -0.0267 E-score.
Regarding ATTCGACA, the binding signal is 0.163 E-score.
With CCGGGAAG, the binding signal was -0.131 E-score.
Then AGGGTAAG, with 0.152 E-score; and ACCGATGA, with 0.105 E-score; and GGTTAGGA, with 0.147 E-score.
In the case of GGCTCTGA it was -0.21 E-score.
Then AGAGCCCC, with -0.191 E-score; and AGCGAAGC, with -0.124 E-score.
Regarding GAGGACCC, the binding signal was determined as 0.0841 E-score.
On to CATCTGTC, for which the binding signal is -0.119 E-score.
Consider CGAAGACG, for which the binding signal is -0.0924 E-score.
In the case of CTTTGGAA it was -0.178 E-score.
In the case of AAATCCCG, the binding signal was -0.0304 E-score.
For GGGTCACC, the binding signal was 0.14 E-score.
Then AAAAGCGG, with -0.201 E-score; and TACTATGA, with -0.0404 E-score.
Then CGGCGACC, with -0.00942 E-score; and CTGACTGA, with -0.2 E-score.
In the case of AAGATGGG it was -0.0813 E-score.
For the sequence GGCTGCGA, the binding signal is -0.203 E-score.
Then AGGTACTG, with -0.172 E-score.
Consider CTGCCCAC, for which the binding signal amounted to 0.0119 E-score.
In the case of GATTTTGC it was -0.138 E-score; in that of GAACAGCA, -0.149 E-score; in that of CGTACTAC, -0.0725 E-score.
Consider GAGTCCGA, for which the binding signal is -0.108 E-score.
For the sequence CACCAGGG, the binding signal was determined as 0.284 E-score.
In the case of CGGTGACA it was 0.248 E-score; in that of AGGTCCGG, -0.0748 E-score; in that of TACGAGTA, -0.0874 E-score.
For AGCACATG, the binding signal was -0.23 E-score.
AGTGTCCA: the binding signal is 0.348 E-score.
As to CTAGAATC, the binding signal was -0.00104 E-score.
In the case of CACGGTCA, the binding signal was 0.243 E-score.
In the case of ACTCTGAG it was -0.0232 E-score; in that of ATTTGAAC, 0.0125 E-score; in that of TGGGCCCA, -0.0815 E-score.

Source of the values: publication PMC10668032.
